The other results are listed elsewhere or left out. Antibody binding of pooled human sera (four to six donors per pool; dilution not stated) to peptides of the Trypanosoma cruzi antigen TSSA on microarrays. Quantile-normalised fluorescence in arbitrary units, mean of duplicate arrays; higher = more binding. No active / inactive call. The uninfected pools are read here as the healthy donors of the same country. The strongest signals lie near the top of the scale (about 60,000).

This test concerns pooled sera of uninfected people, Colombia. The experiment in a line: antibody binding signal (normalised fluorescence) (arbitrary fluorescence units); higher = stronger serum antibody binding to peptide. As for the experimental part:
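Microarray of 15-residue peptides over residues 30-55 of Trypanosoma cruzi TSSAII, each with 1 to 10 substitutions at naturally variable positions, probed with one serum pool per country.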
In the case of TEKKTATGGAPSQSG, the antibody binding signal worked out at 126.
Consider KDNKPATGGTPSQPG, for which the antibody binding signal was 209.
The same measure for GKENKAATGGTPSQS: 129; for PPSGTDKKPAAGGAP: 587; for PSGTEKKAAAGETPS: 1070.
As for GKENKPATGEAPSPP, the antibody binding signal was found to be 243.
The same measure for KKAAAGETPSPPGAS: 132; for SGTDKKAAAGGAPSP: 234.
The same measure for EKKAATGGAPSPPGA: 979; for KPATGETPSPPGASS: 163; for KEKKTATGETPSQPG: 123.
The same measure for KKAAAGGAPSQPGAS: 93.3; for TPPSGTENKAATGET: 371.
The sequence SGKEKKTAAGEAPSQ showed an antibody binding signal of 268.
Then SGKDNKTATGGTPSQ, with 402; and TISTPPSGKDNKAAA, with 200.
Then GKEKKAATGETPSPP, with 190; and KDNKAAAGETPSPPG, with 191; and PSGTEKKPAAGGTPS, with 376.
Then SSTPPSGKDKKPATG, with 156; and ISTPPSGKDNKPATG, with 193.
As for ENKAATGETPSQPGA, the antibody binding signal stood at 222.
The same measure for PSGTDNKPAAGGTPS: 753; for ENKPATGETPSQSGA: 107.
The same measure for SGKENKTAAGETPSQ: 592; for DNKPAAGEAPSPPGA: 139; for KKTAAGETPSQSGAS: 230.
As to KDKKAATGGAPSQPG, the antibody binding signal turned out to be 192.
The sequence GKDNKPATGEAPSQP registered an antibody binding signal of 298.
The same measure for KEKKPATGGTPSQPG: 111; for GKDKKPAAGETPSQP: 160; for ISTPPSGTEKKTATG: 111.
Then PPSGTDKKTAAGETP, with 700; and GTENKPAAGETPSPS, with 158.
Then SGTENKTAAGETPSP, with 273; and TDNKAATGEAPSQPG, with 112.
The sequence TSSTPPSGTDNKPAT gave an antibody binding signal of 371.
Then GTDNKAATGGAPSQS, with 197; and TEKKAATGGTPSQPG, with 1370.
The same measure for DKKAAAGGAPSQSGA: 134.
